# This is one part of the list.
# Tested on: PfHDP1 homeodomain (GST-tagged)
# Experiment: gcPBM binding intensity (ln(normalized median fluorescence intensity)); higher = stronger DNA binding
# Outline: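 Binding intensity values are the highest Masliner-normalised natural-log median intensity among replicate spots of either probe orientation. The binding step lasted 1 h in 1× PBS with 1% milk, 0.2 mg/ml BSA, 0.5% salmon testes DNA and 0.03% Triton X-100, using GST-tagged P. falciparum DNA-binding domains expressed in E. coli on an Agilent 4 × 180k array of primer-extended double-stranded 36-bp intergenic genomic probes plus negative controls. Alexa488 anti-GST antibody and a 488 nm scan detected bound protein.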
row,Sequence,gcPBM binding intensity (ln)
1,ATCACTAATTTTTTTACACACCACAATTTAATTTTT [CACACA_site1186],7.07
2,CACATTTCTGTAGTTGCATGTAGAAAAAAAAAAAAA [TGCATGCA_site810],6.45
3,AATACAATTGAAAATTGTACTTTGTTTTTTATAAAT [XGTACX_site4080],5.83
4,TTTTGAGAAAAAATAAAATAATAAATAAAAATACAT [XGTACX_negctrl_site66],6.48
5,CATATAATAAATAATACACACATATTGGAAATATAT [CACACA_site3212],6.47
6,AAAGGTATATATGTGTGTACATATATATATATATAT [XGTACX_site5629],9.29
7,GGTCATCATCGGTATTGTACAAAAATGTGAAAATTA [XGTACX_site639],6.86
8,TTTTTTTTTTTGGTTACACACATTTGTATATTCTCA [CACACA_site134],6.45
9,CATATTAATACAGAATGTACGGATAACAAACTGTTT [XGTACX_site7935],6.12
10,CCATAACTCCTATGCACACATAAATATTACAGAGAT [CACACA_site5984],9.78
11,TTTTATTTAGGAGGTGCATGTAATACGGAACATAAT [TGCATGCA_site827],8.17
12,GATTTATATTTTAAAAGTACAAGTTAAAATAAAAGT [XGTACX_site7059],6.6
13,TTTGATTTTAATGTGTGTACACATTTATTTATATAA [XGTACX_site4806],6.65
14,ATATAATATCTGTATACACACATATTATATAATATT [CACACA_site5940],6.72
15,AATATAAGATTATTATGTACATAATAAATATGTATT [XGTACX_site4773],6.52
16,ATATAAGTATAATTATGTACTTATACTTATATAAAT [XGTACX_site5585],6.22
17,ATTAGTTTATATGAATGATTTTTCTTTTTTTTTTTT [CACACA_negctrl_site88],6.05
18,TTACTATTTCACTGTGCATGCAACAAAAATCTATCT [TGCATGCA_site808],9.48
19,ATATTTTGGGTGTTGTTTTTTTTTAAAACTCTTTAA [CACACA_negctrl_site1255],6.92
20,AAAAATAAAAAAAAATTAAAATATATATATTTTGTT [TGCATGCA_negctrl_site102],6.4
21,AACATATTTATATACACACACATATTTATATGAAAT [CACACA_site6268],6.85
22,GAGAGGATACATACATGTACATAAATATTTTATTTT [XGTACX_site5129],6.52

row,Sequence,gcPBM binding intensity (ln)
1,AGGAAAAAAAGTAGCACACAAATATTTATAATATAT [CACACA_site2437],6.65
2,AAAAAAAAAAAAAATAATAAATAAATAAATAAATAA [GTGCAC_negctrl_site505],6.85
3,CGTAGCCGCACTAACACACACAAATATACGCAATCA [CACACA_site2898],7.03
4,TTTTGAATTAAACAAGCATGCTTTATTTACTTCTTA [TGCATGCA_site289],6.32
5,TAATTTATTAATAATTGTACAGATATTATACTTAAA [XGTACX_site8947],6.2
6,TAATTCATCCTATGCACACACAATACCAAAATGTGC [CACACA_site4269],10.1
7,TGCTCATGAGGTCAGAGTACAAAATAGTAAATGTAT [XGTACX_site2973],6.94
8,TTTTTTTTTTTTTTTCTTTTTTATTCTCACAAAAAA [CACACA_negctrl_site1790],6.09
9,TTTATTTTTATTTTTGTGCACGGGATTAAATAAAAG [GTGCAC_site9842],9.88
10,GAACAAATTACAAGTTGTACTTTATGTAAATTATTA [XGTACX_site5304],6.2
11,TTTTTATAACAAAGTATTTAAATAATTTATACTAAT [TGCATGCA_negctrl_site104],6.41
12,ATGCGTTCATACATACATACATACATACAATTTGTA [TGCATGCA_negctrl_site50],6.76
13,AACATTTATATTTAAGTGCAGATGCTGTAATTTAGA,7.14
14,AAATTTATATATAGTTGTACAAAAATATGTTTCGTA [XGTACX_site4801],6.62
15,TTATTTTATCACACATGTACATATGTTAATTTTTTT [XGTACX_site5598],6.88
16,AAAATAAAAAGAAATAAATTAACAGTAAGGAAAAAA [CACACA_negctrl_site1105],6.75
17,TGAATAATCAATAGTACACACATATAAATATATATA [CACACA_site2813],6.49
18,ATATTTTTTCTGAACGGTACAGAATTTTTCAAGATT [XGTACX_site484],6.51
19,TATATATATCTGTATACACACATATGTATGTTATGT [CACACA_site6090],6.99
20,CCTTTTTCTAATGGATGTACTTATTATATACATTAT [XGTACX_site281],6.4
21,AAGAAAAGTAAATATGCATGTAGGGTAGGTTATTTT [TGCATGCA_site46],6.65
22,ATATAACAGAAACACACACACATATATATATATTAT [CACACA_site4140],6.95

# From the supplement of paper PMC11417369
